The values that follow come from PMC4336329 (PLoS ONE, 2015).

In all, about 310,000 compounds went through this assay and about 14,000 (4.5%) showed an effect of 50% or more. Effects have a minus sign here. Some of the results follow.
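Further: peak tail current of the secondary pulse compared with the same well before compound.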

Sequence of human ether-à-go-go-related gene (hERG) potassium channel (Q12809 whole entry, looked up): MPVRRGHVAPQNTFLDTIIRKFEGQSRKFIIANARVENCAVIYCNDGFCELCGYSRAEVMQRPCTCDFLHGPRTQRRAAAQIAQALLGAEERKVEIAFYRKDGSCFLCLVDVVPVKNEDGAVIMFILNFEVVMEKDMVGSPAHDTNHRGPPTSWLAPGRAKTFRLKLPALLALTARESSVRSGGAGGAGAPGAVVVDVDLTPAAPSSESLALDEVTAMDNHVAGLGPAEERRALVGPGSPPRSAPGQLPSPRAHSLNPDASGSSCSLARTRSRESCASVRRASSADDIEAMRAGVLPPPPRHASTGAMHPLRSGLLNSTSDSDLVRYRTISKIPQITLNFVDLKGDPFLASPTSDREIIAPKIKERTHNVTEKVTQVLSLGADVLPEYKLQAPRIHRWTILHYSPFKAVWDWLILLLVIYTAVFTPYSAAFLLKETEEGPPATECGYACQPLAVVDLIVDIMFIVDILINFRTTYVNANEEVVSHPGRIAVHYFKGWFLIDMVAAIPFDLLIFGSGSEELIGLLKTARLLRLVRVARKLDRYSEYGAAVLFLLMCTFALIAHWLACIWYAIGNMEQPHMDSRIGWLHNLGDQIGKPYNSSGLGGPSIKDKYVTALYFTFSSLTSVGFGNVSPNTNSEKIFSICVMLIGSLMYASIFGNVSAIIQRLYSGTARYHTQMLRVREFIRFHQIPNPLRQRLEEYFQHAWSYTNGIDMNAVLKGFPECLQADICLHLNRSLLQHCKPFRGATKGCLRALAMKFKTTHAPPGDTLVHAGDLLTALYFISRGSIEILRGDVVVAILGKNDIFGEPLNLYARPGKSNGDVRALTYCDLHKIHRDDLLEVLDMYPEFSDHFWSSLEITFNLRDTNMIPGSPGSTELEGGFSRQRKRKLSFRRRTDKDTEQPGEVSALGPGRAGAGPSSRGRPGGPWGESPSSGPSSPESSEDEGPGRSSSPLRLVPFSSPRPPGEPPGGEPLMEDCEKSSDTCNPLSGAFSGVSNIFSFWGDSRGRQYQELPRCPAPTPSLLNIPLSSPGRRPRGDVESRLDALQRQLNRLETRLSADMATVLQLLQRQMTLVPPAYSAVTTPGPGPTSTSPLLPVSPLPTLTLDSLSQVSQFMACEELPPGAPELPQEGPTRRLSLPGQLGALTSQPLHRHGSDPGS

The experiment concerns the target human ether-à-go-go-related gene (hERG) potassium channel (human, UniProt Q12809). As to the kind of experiment: primary screen, population patch clamp on CHO cells stably expressing hERG.
For `Cc1ccc(CN2C(=O)N/C(=C\c3ccc(N4CCOCC4)cc3)C2=O)cc1`, the “hERG current change (%, negative = inhibition) at 10uM” value was 4.01%.

On to `O=C(Nc1ccc(C(=O)NC2CCCCC2)cc1)c1cccnc1`, for which the “hERG current change (%, negative = inhibition) at 10uM” value is given as 25.4%. With `Cn1c(=O)c(C(=O)COC(=O)c2cc(C(F)(F)F)nc3ccccc23)c(N)n(Cc2ccccc2)c1=O` the figure was -4.7%. On to `COc1ccc(C(=O)Nc2ccc(S(=O)(=O)N3CCCCC3C)cc2)c(OC)c1OC` (centres unmarked), for which the “hERG current change (%, negative = inhibition) at 10uM” value was -6.46%.

On to `Cc1cc(C)c(C)c(S(=O)(=O)NCCCn2ccnc2)c1C`, for which the “hERG current change (%, negative = inhibition) at 10uM” value came to 3.09%. In the case of `COc1ccc(CC(=O)NCc2ccc3c(c2)cc(C)n3C)cc1OC`, the “hERG current change (%, negative = inhibition) at 10uM” value is recorded as 0.894%. Take `CCCCOc1ccc(C(=O)Nc2ccc3c(c2)C(=O)NC3=O)cc1`: the “hERG current change (%, negative = inhibition) at 10uM” value was found to be 4.43%.

`COc1ccc(C2Nc3ccccc3C(=O)N2Cc2ccco2)cc1CN1C(=O)c2ccccc2C1=O` (centres unmarked): the “hERG current change (%, negative = inhibition) at 10uM” value is on record as -20.7%.

With `COc1ccc(CN(C)C(=O)c2cnc(OC)cc2C(F)(F)F)c(OC)c1`, the “hERG current change (%, negative = inhibition) at 10uM” value is -15.6%. As to `Cc1ccc2oc(C(=O)NCCCN3CCOCC3)c(C)c2c1`, the “hERG current change (%, negative = inhibition) at 10uM” value is given as -10.6%. Consider `O=C(Nc1cnn(Cc2ccc(F)cc2)c1)c1cnn2c(C(F)F)cc(-c3ccccc3)nc12`, for which the “hERG current change (%, negative = inhibition) at 10uM” value is on record as 5.3%. For `CC1S/C(=N/N=C/c2cccc([N+](=O)[O-])c2)NC1=O` (centres unmarked), the “hERG current change (%, negative = inhibition) at 10uM” value is listed as 5.33%.

Consider `Cc1ccc(Cn2c(C)nc3c(c2=O)c2nc4ccccc4nc2n3Cc2ccco2)cc1`, for which the “hERG current change (%, negative = inhibition) at 10uM” value stood at 5.72%. For the molecule `O=C(Nc1ccccc1C(=O)N/N=C/c1ccc(F)cc1)c1ccccc1Br`, the “hERG current change (%, negative = inhibition) at 10uM” value is on record as -10.3%. With `C#Cc1ccc([C@@H]2C=C(C(=O)OCC=C)O[C@H](OCCCCO)C2)cc1` the figure was -10.7%; with `Cc1cccnc1NC(=O)Nc1cccc2ccccc12`, -0.189%. Consider `CCOc1cc(C(=O)OCc2cccc(OC)c2OC)ccc1OCC(=O)N1CCOCC1`, for which the “hERG current change (%, negative = inhibition) at 10uM” value is -11%.

Take `Cc1ccc2nc(NC(=S)NC(=O)c3ccco3)sc2c1`: the “hERG current change (%, negative = inhibition) at 10uM” value amounted to 11.7%. In the case of `O=P(C1=C(N2CCOCC2)/C(=C\c2ccccc2)CC1)(N1CCOCC1)N1CCOCC1` it was -25.3%. Regarding `CC(C)(C)c1csc(NC(=O)Nc2ccccc2)n1`, the “hERG current change (%, negative = inhibition) at 10uM” value stood at 13.5%.

On to `O=C(O)C1CN(C(=O)c2cccc(Br)c2)C1`, for which the “hERG current change (%, negative = inhibition) at 10uM” value is reported as 29.5%. With `CCCc1cc(=O)[nH]c(SCC(=O)NC2CCCCC2)n1`, the “hERG current change (%, negative = inhibition) at 10uM” value was 2.12%. As for `COc1ccccc1CNC(=O)/C=C/c1ccc(Br)o1`, the “hERG current change (%, negative = inhibition) at 10uM” value was -2.72%. Consider `CC(C)(C)NC(=O)CN(C(=O)CNS(=O)(=O)c1ccccc1)c1ccc2c(c1)OCCO2`, for which the “hERG current change (%, negative = inhibition) at 10uM” value worked out at 6.79%. As to `CCOC(=O)CSc1nc2c(cnn2-c2ccc(C)cc2)c(=O)[nH]1`, the “hERG current change (%, negative = inhibition) at 10uM” value was 7.7%. `Cc1ccccc1C(N)c1ccncc1.Cl` (centres unmarked): the “hERG current change (%, negative = inhibition) at 10uM” value is given as 2.52%. Regarding `Cc1cnc(C(=O)OCC(=O)Nc2ccc(C)c(S(=O)(=O)N3CCCCCC3)c2)cn1`, the “hERG current change (%, negative = inhibition) at 10uM” value is on record as -23.2%. Consider `Cc1ccc(C(=O)OCCN(C)Cc2ccccc2)cc1.Cl`, for which the “hERG current change (%, negative = inhibition) at 10uM” value is given as -44.6%. As to `O=C(CCc1nc2ccccc2c(=O)[nH]1)OCC(=O)c1ccc(C2CCCCC2)cc1`, the “hERG current change (%, negative = inhibition) at 10uM” value is listed as -8.95%. Take `COc1ccc(-c2nc(NCCCN(C)C)c3ccccc3n2)cc1.Cl`: the “hERG current change (%, negative = inhibition) at 10uM” value was -27.3%. Regarding `CCOC(=O)c1[nH]cnc1C(=O)NC1CCCCC1`, the “hERG current change (%, negative = inhibition) at 10uM” value worked out at 23.5%. Regarding `CCCC(C)n1[nH]c(=O)c2c(C)cc(C)nc21` (centres unmarked), the “hERG current change (%, negative = inhibition) at 10uM” value is listed as 6.46%. For the molecule `CN(C)CC(C)(C)CNS(=O)(=O)c1cccc2nsnc12`, the “hERG current change (%, negative = inhibition) at 10uM” value is recorded as 6.86%. In the case of `COc1ccc(-c2c(N)nnc3c2[nH]c2ccccc23)cc1OC.Cl` it was -14.3%.

Take `COc1ccc(CC(=O)NCc2cn3ccsc3n2)cc1`: the “hERG current change (%, negative = inhibition) at 10uM” value was 16.2%.

Regarding `Cc1ccc(C2=[N+]([O-])C(C)(C)N(O)C2(C)C)cc1`, the “hERG current change (%, negative = inhibition) at 10uM” value was 4.91%. With `Cc1cnc(NC(=O)CC(C)c2ccccc2)s1` (centres unmarked) the figure was 15.8%. In the case of `CCOc1cc(NC(=O)c2ccccn2)c(OCC)cc1NC(=O)c1ccc(OC)cc1` it was 3.54%.

As to `O=C(c1ccc([N+](=O)[O-])cc1[N+](=O)[O-])N1CCN(C(=O)C2CCCO2)CC1` (centres unmarked), the “hERG current change (%, negative = inhibition) at 10uM” value turned out to be 5.57%. With `COc1cc(C(=O)Nc2cccc(S(=O)(=O)N3CCCC3)c2)cc(OC)c1C` the figure was 2.98%.

`Cc1ccccc1N(CC(=O)NC1CCCCC1)C(=O)CNC(=O)c1cccs1`: the “hERG current change (%, negative = inhibition) at 10uM” value is listed as -32.8%. With `COC(=O)COc1cc(C)cc2oc(=O)c(CC(=O)OC)c(C)c12`, the “hERG current change (%, negative = inhibition) at 10uM” value is -23.8%.

As for `CCOCCCNC(=O)C1CCCN(S(=O)(=O)CC)C1` (centres unmarked), the “hERG current change (%, negative = inhibition) at 10uM” value was 5.35%. Regarding `COc1cc(OC)cc(C(=O)NCCNc2nc3cc(C)cc(C)c3cc2C#N)c1`, the “hERG current change (%, negative = inhibition) at 10uM” value is listed as 0.0728%.
